Data on 45 compounds can be found in paper PMC4336329 (PLoS ONE, 2015).

Among all 310,000 compounds or so, about 14,000 (4.5%) showed an effect of 50% or more. The effect is printed as a negative number. The list shows a part of the results.
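Also: peak tail current of the secondary pulse compared with the same well before compound.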

For the test, the target named is human ether-à-go-go-related gene (hERG) potassium channel (human, UniProt Q12809). Briefly: primary screen, population patch clamp on CHO cells stably expressing hERG.
Chain of human ether-à-go-go-related gene (hERG) potassium channel (Q12809 whole entry, looked up): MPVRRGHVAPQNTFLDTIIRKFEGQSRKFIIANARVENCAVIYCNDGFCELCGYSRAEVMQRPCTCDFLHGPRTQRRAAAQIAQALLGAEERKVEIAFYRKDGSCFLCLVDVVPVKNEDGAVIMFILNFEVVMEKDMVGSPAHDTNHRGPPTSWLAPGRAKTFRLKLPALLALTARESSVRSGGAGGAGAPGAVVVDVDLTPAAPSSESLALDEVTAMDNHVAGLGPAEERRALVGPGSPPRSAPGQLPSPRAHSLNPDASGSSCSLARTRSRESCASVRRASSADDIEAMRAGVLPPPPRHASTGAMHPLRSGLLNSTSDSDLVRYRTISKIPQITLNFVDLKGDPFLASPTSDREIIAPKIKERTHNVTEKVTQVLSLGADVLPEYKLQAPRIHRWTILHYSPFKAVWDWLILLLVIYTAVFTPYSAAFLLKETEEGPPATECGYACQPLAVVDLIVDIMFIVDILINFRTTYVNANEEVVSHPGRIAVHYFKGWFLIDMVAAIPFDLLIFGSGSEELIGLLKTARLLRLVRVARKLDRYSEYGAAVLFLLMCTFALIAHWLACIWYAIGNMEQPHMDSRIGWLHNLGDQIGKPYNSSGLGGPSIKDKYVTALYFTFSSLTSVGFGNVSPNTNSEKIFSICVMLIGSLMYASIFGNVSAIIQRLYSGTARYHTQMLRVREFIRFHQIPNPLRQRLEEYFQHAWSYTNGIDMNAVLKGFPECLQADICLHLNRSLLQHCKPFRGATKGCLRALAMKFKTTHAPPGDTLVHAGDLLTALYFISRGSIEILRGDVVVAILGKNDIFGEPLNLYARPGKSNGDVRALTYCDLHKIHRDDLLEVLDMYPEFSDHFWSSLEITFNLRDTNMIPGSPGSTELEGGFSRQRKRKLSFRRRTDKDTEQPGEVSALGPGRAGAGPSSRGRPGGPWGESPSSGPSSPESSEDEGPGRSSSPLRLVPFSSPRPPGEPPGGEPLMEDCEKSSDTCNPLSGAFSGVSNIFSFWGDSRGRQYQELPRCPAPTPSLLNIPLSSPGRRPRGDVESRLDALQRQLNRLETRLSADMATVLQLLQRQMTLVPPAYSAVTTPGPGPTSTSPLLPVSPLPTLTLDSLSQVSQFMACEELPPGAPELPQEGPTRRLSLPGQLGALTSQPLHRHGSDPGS
Take `O=C(NCCN1CCN(c2ccccc2)CC1)c1cccn2c(=O)c3cc(Cl)ccc3nc12`: the “hERG current change (%, negative = inhibition) at 10uM” value is on record as -45.4%. Next, `CC(C)(C)NC(=O)C(c1cccs1)N(Cc1ccc(F)cc1)C(=O)c1csnn1` (stereo not drawn): -16.3%; `COc1ccc(N(CC(=O)Nc2ccc3c(c2)OCO3)S(=O)(=O)c2ccccc2)c(OC)c1`: -5.01%; `Cc1ccc(-c2nc(CS(=O)CC(=O)NCc3ccc(F)cc3)c(C)o2)cc1` (stereo not drawn): 14.8%. As for `CC1(C)Nc2ccccc2C(=O)N1NC(=O)c1ccccc1`, the “hERG current change (%, negative = inhibition) at 10uM” value turned out to be 2.48%. Next, `Cc1cc(NS(=O)(=O)c2ccc(NC(=O)/C=C/c3c(F)cccc3Cl)cc2)no1`: -0.145%; `O=[N+]([O-])c1ccc(N2CCN(c3ccccc3Cl)CC2)cn1`: -34.3%; `CCOC(=O)c1ccc(NC(=S)N2CCC(C(N)=O)CC2)cc1`: 0.421%. Then `COc1ccc(NC(=O)CC(c2ccc(F)cc2)c2ccc(OC(C)C)cc2)cc1` (stereo not drawn), with 3.91%; and `COc1ccc(NC2CCCN(C(=O)Cn3ccc(C)n3)C2)cc1OC` (stereo not drawn), with 21.5%. Next, `Cc1nc2cc(C(=O)O)ccc2n1-c1ccccc1`: 17.1%; `COc1cc(/C=N/NC(=O)C(C)n2nnc3ccccc32)ccc1O` (stereo not drawn): 3.84%. Consider `O=C(CCCN1C(=O)/C(=C/c2ccccc2)SC1=S)Nc1ccccc1O`, for which the “hERG current change (%, negative = inhibition) at 10uM” value turned out to be 22.9%. Then `CCCCn1c(SCC(=O)c2ccc(O)c(O)c2)nc2ccsc2c1=O`, with -34.7%; and `COc1ccc(Cl)cc1NC(=O)NCc1ccc2c(c1)OCO2`, with -20.8%. Then `O=C1C=C(N2CCOCC2)CCC1`, with 11.1%; and `O=[N+]([O-])c1cccc(/C([O-])=C(/C(=S)Nc2ccccc2F)[n+]2ccccc2)c1`, with -6.87%. Next, `CNc1nc(SC(C)C(=O)Nc2ccc(Cl)c(Cl)c2)nc(N2CCOCC2)n1` (stereo not drawn): 19.6%. For `CC(C)N(C(=O)CSc1ncnc2sc(-c3ccccc3)cc12)C(C)C`, the “hERG current change (%, negative = inhibition) at 10uM” value is on record as 9.99%. Then `c1ccc(-c2noc(-c3ccco3)n2)nc1`, with -14.5%; and `CCNC(=O)c1c(C)[nH]c(C(=O)OCC)c1C`, with 9.87%; and `CN(C)C=O.Cc1cccc(-n2nnnc2SCC(=O)N(CC(C)C)c2c(N)n(CC(C)C)c(=O)[nH]c2=O)c1`, with 3.76%. Then `CCc1cccc(CC)c1NC(=S)N(CCN(C)C)C(C)c1cccnc1` (stereo not drawn), with -15.4%; and `ON/C=N/C(=S)Nc1ncc(C(F)(F)F)cc1Cl`, with -10.6%. Next, `O=C(N/N=C/c1c(O)ccc2ccccc12)c1ccc(Br)o1`: 8.26%; `N#Cc1ccc(-c2ccccc2)nc1SCC(=O)c1cc2ccccc2oc1=O`: 22.1%.

For `S=c1[nH]nc(-c2ccco2)n1/N=C/c1ccc(Cl)cc1`, the “hERG current change (%, negative = inhibition) at 10uM” value is reported as 10.6%. Then `COc1ccc(CNC(=O)C2=C(C)C(=O)OC23CCC(C)CC3)cc1` (stereo not drawn), with 11.5%; and `COc1ccc(Br)cc1/C(C)=N/NC1=NCCN1.Cl`, with -26.7%.

With `COc1ccc(-c2nnn(CC(=O)N3CCN(c4ccccc4OC)CC3)n2)cc1OC`, the “hERG current change (%, negative = inhibition) at 10uM” value came out at 19.3%. Then `COCCC(=O)N1CCC(Oc2ccc(C(=O)NCCSC)cc2)CC1`, with 13.6%. For the compound `O=C(/C=C/c1ccc([N+](=O)[O-])cc1)NCc1ccco1`, the “hERG current change (%, negative = inhibition) at 10uM” value is -24.1%. With `O=C(CNS(=O)(=O)c1ccc(Cl)c(C(F)(F)F)c1)NC1CCCCCC1`, the “hERG current change (%, negative = inhibition) at 10uM” value is given as 4.24%.

For the compound `CN(C)c1ncc(S(=O)(=O)c2ccccc2)c(=O)[nH]1`, the “hERG current change (%, negative = inhibition) at 10uM” value is 17.7%. Then `NCC(O)CN(c1ccccc1)c1ccccc1` (stereo not drawn), with 12%. Then `O=C(O)C1=C[C@@H](c2coc3ccccc3c2=O)C[C@@H](OCCCCO)O1`, with 22.8%; and `CC(C)(CNC(=O)Cc1ccc(NS(=O)(=O)c2cccc(C(F)(F)F)c2)cc1)N1CCOCC1`, with -44.3%; and `O=C(CC(=O)Nc1ccccc1[N+](=O)[O-])Nc1ccccc1[N+](=O)[O-]`, with -6.49%. Next, `O=C(Nc1ccc(N2CCN(C(=O)c3ccco3)CC2)cc1)c1cc(Br)ccc1Cl`: -7.3%.

As for `O=C(COC(=O)/C=C/c1ccco1)Nc1ncc(Cl)cc1Cl`, the “hERG current change (%, negative = inhibition) at 10uM” value came to 2.35%. Then `C=CCOc1ccc(/C=C/C(=O)OCC(=O)NC2CCCCCCC2)cc1`, with 20.4%; and `O=C(CN1CCOCC1)NCCC12CC3CC(CC(C3)C1)C2`, with -9.62%.

For `COc1cccc(NC(=O)CN2C(=O)NC(c3ccccc3)(c3ccccc3)C2=O)c1`, the “hERG current change (%, negative = inhibition) at 10uM” value is 3.39%. Next, `O=C(O)c1c(-c2ccc(Cl)cc2)cn2ccccc12`: 21.2%; `CCOc1nc2cnccc2n(CC(=O)Nc2c(F)c(F)cc(F)c2F)c1=O`: 15.2%.
